{
  "source": "PubChem BioAssay AID686970",
  "about": "(National Center for Advancing Translational Sciences (NCATS), 2013)",
  "note": "Out of some 360,000 compounds screened, about 6,000 (1.7%) were called active. Inconclusive means that the source gave no clear call. Such entries were picked first, then a sample of the others. The call rests on the fitted dose curve; in most records, active means well fitted cell-killing curve with a large enough effect; inconclusive means small, poorly fitted or top-dose-only effect, or effect the other way; inactive means flat fitted curve, though single readings scatter. No potency is given beside an inconclusive call; the fits are too rough. Potency means the concentration at half of the fitted maximal effect; tags describe the fitted curve by direction and shape.",
  "data": [
    {"experiment": "qHTS for induction of synthetic lethality in tumor cells producing 2HG: qHTS for the HT-1080-NT fibrosarcoma cell line;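 further: NT is the 2HG producing partner of a matched IDH1 knockdown line; nearly all actives have a fitted effect of over 55% in size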;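 on activity, negative = less viability: 0% = DMSO-treated cells and -100% = media-only wells without cells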", "conditions": "HT-1080-NT fibrosarcoma viability, CellTiter-Glo ATP luminescence, 48 h; activity, negative = less viability: at 46.1 µM (top of the series) unless noted", "outline": "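HT-1080-NT fibrosarcoma cells (2HG-overproducing), 750 cells/well in RPMI with 5% FBS, dosed after 2 h and incubated 48 h at 37C. CellTiter-Glo luminescence normalized to DMSO and no-cell wells; concentration-response curves fitted and classed.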", "values": [
      {"smiles": "COc1ccc(CCN2C(=O)/C(=C\\c3ccco3)SC2=S)cc1OC", "Potency": "inconclusive [rising, partial curve]"},
      {"smiles": "Cc1ccc(Cc2c(C3CCCCC3)nc3c(C)cc(Br)cn23)cc1", "activity, negative = less viability": "inactive: -10.9%"},
      {"smiles": "COc1ccccc1OCCN1CSC(=S)N(C)C1", "Potency": "active: 9.2 µM"},
      {"smiles": "CSc1nc(N)nc(SCCS(=O)(=O)c2ccc(Cl)cc2)c1C#N", "Potency": "inconclusive [cytotoxic, single point]"},
      {"smiles": "Cc1ccc(SC2=C(N(C)C)C(=O)c3ccccc3C2=O)cc1", "Potency": "inconclusive [cytotoxic, single point]"},
      {"smiles": "CCOC(=O)c1ccc(NC(=O)Cn2ncc(Cl)c(Cl)c2=O)cc1", "Potency": "active: 16.4 µM"},
      {"smiles": "CC1(C)Cc2nc3sc4c(=O)n(CC(=O)NCc5ccccc5)cnc4c3cc2CO1", "Potency": "active: 8.91 µM"},
      {"smiles": "CCOc1ccc(NC(=O)CCC(=O)NNC(=O)c2cccc([N+](=O)[O-])c2)cc1", "activity, negative = less viability": "inconclusive: 3.42% [cytotoxic]"},
      {"smiles": "COc1ccc(-c2cnc3c(NC(C)=O)cc(-c4ccccc4OC)cn23)cc1OC", "Potency": "inconclusive [cytotoxic, single point]"},
      {"smiles": "O=C(COc1ccc(-n2cnnn2)cc1)Nc1ccc(F)c(Cl)c1", "Potency": "inconclusive [cytotoxic, single point]"},
      {"smiles": "CCN(CC)c1ccc(/C=N/NC(=S)NCc2ccco2)cc1", "activity, negative = less viability": "inconclusive: -30% [cytotoxic]"},
      {"smiles": "COc1ccc(NC(=O)c2ccco2)cc1NC(=O)c1c(OC)cccc1OC", "activity, negative = less viability": "inactive: -1.69%"},
      {"smiles": "CC(=O)Nc1ccccc1N(CC(O)Cn1c2ccccc2c2ccccc21)S(=O)(=O)c1ccc(C)cc1", "note": "(stereo unspecified)", "Potency": "inconclusive [cytotoxic, partial curve]"},
      {"smiles": "Cc1ccc(-c2csc(NC(=S)NC(=O)/C=C/c3ccco3)n2)cc1", "Potency": "active: 7.08 µM"},
      {"smiles": "CC(=O)c1ccc(N2CCN(C(=O)Nc3ccc(C(C)C)cc3)CC2)cc1", "Potency": "inconclusive [cytotoxic, partial curve]"},
      {"smiles": "CCOC(=O)CSc1cc(-c2ccccc2)nc2ncnn12", "Potency": "inconclusive [cytotoxic, single point]"},
      {"smiles": "O=C(COc1ccc(S(=O)(=O)N2CCOCC2)cc1Cl)NCCCn1ccnc1", "activity, negative = less viability": "inconclusive: 31.7%"},
      {"smiles": "Cc1ccc(S(=O)(=O)N2CCCCC2)cc1NCC(=O)Nc1ccc(Br)cc1F", "Potency": "inconclusive [cytotoxic, partial curve]"},
      {"smiles": "CCCc1nc2cc(C)c(Br)c(C)n2c1Cc1ccc(OC)cc1C", "Potency": "inconclusive [cytotoxic, single point]"},
      {"smiles": "Cc1ccc(NNC(=O)c2cc(C)on2)c(C)c1", "Potency": "inconclusive [cytotoxic, single point]"},
      {"smiles": "O=C(Nc1cccc(NC(=O)c2ccccc2)n1)c1ccccc1", "activity, negative = less viability": "inactive: 1.37%"},
      {"smiles": "CCc1nnc(NS(=O)(=O)c2ccc(N=Cc3c(C)[nH]n(-c4ccc(C)c(C)c4)c3=O)cc2)s1", "Potency": "inconclusive [cytotoxic, single point]"},
      {"smiles": "OC(CNCc1ccccc1F)COc1cccc2ccccc12", "note": "(stereo unspecified)", "Potency": "inconclusive [cytotoxic, single point]"},
      {"smiles": "CCn1cc(C(=O)NCCCN2CC(C)CC(C)C2)c(=O)c2cc(S(=O)(=O)N(C)C)ccc21", "note": "(stereo unspecified)", "activity, negative = less viability": "inactive: 4.99%"},
      {"smiles": "COc1ccc(C(N)c2csc(Nc3cc(Oc4ccccc4)ncn3)n2)cc1", "note": "(stereo unspecified)", "Potency": "inconclusive [cytotoxic, single point]"},
      {"smiles": "CC(=O)C1=C(O)C(=O)N(c2ccc(Br)cc2)C1c1ccc(Br)cc1", "note": "(stereo unspecified)", "Potency": "inconclusive [cytotoxic, single point]"},
      {"smiles": "c1ccc2c(c1)CCCC2C1=NCCN1", "note": "(stereo unspecified)", "Potency": "inconclusive [rising, single point]"},
      {"smiles": "Cc1onc(-c2ccccc2)c1C(=O)Nc1nc2c(s1)CCCC2", "activity, negative = less viability": "inactive: -12.5%"},
      {"smiles": "OC(CN1CCCC1)Cn1ccc2ccccc21", "note": "(stereo unspecified)", "activity, negative = less viability": "inactive: 0.24%"},
      {"smiles": "CC(=O)c1ccc(Nc2c3c(nc4ccccc24)CCCC3)cc1", "Potency": "inconclusive [cytotoxic, single point]"},
      {"smiles": "COc1ccc(/C=N/N(Cc2ccccc2)c2ccccc2)cc1O", "Potency": "active: 14.6 µM"},
      {"smiles": "CCOC(=O)Nc1ccc2nc(Sc3ccc(Cl)cc3)sc2c1", "Potency": "inconclusive [cytotoxic, partial curve]"},
      {"smiles": "Cc1cc(C)cc(C(=O)NN2CCOCC2)c1", "activity, negative = less viability": "inactive: 9.79%"},
      {"smiles": "O=C(NN=C1CCCC1)c1n[nH]c2c1CCC2", "Potency": "active: 2.59 µM"},
      {"smiles": "O=C(c1ccc2ncsc2c1)N1CCN(c2cccc(C(F)(F)F)c2)CC1", "Potency": "active: 8.2 µM"},
      {"smiles": "COc1ccccc1N1CCN(C(=O)c2cc(=O)c3cc(C)ccc3o2)CC1", "Potency": "inconclusive [cytotoxic, single point]"},
      {"smiles": "COc1cccc(N2CCN(S(=O)(=O)c3cc4c(cc3C)N(C)CCO4)CC2)c1", "activity, negative = less viability": "inactive: -11.6%"},
      {"smiles": "CCN(C(=O)c1cccs1)c1nnc(-c2ccncc2)s1", "Potency": "inconclusive [rising, partial curve]"},
      {"smiles": "Cc1ccc(C(NC(=O)N2CCOCC2)=C(Cl)Cl)cc1F", "Potency": "inconclusive [cytotoxic, single point]"},
      {"smiles": "COc1cccc(CN2CC(C(=O)NCCc3ccc(C)o3)CCC2=O)c1", "note": "(stereo unspecified)", "activity, negative = less viability": "inactive: 3.45%"},
      {"smiles": "COc1cc(/C=N\\NC(=O)c2cccc(Cl)c2)ccc1Oc1ccc([N+](=O)[O-])cn1", "Potency": "inconclusive [cytotoxic, single point]"},
      {"smiles": "Cc1ccc(NC(=O)CN(C)C(=O)Cn2ncc(Cl)c(Cl)c2=O)cc1", "Potency": "inconclusive [cytotoxic, single point]"},
      {"smiles": "CC1(CC(=O)N/N=C/c2cc3c(cc2Br)OCO3)OCCO1", "activity, negative = less viability": "inactive: -8.53%"},
      {"smiles": "CC[C@H](CO)Oc1cc(NCc2ccc(Cl)c(Cl)c2)c2ncn(C(C)C)c2c1", "Potency": "inconclusive [cytotoxic, single point]"},
      {"smiles": "CCOC(=O)c1[nH]c(C)c(/C(O)=C2\\C(=O)C(=O)N(CCN3CCOCC3)C2c2cccs2)c1C", "note": "(stereo unspecified)", "Potency": "inconclusive [cytotoxic, single point]"},
      {"smiles": "CN1CCN(C(=O)c2cc3c(c(-c4cccc(-c5cc6ccccc6o5)c4)n2)[C@@H](CCO)N(S(=O)C(C)(C)C)C3)CC1", "note": "(stereo partly specified)", "activity, negative = less viability": "inactive: -26%"}
    ]}
  ]
}
